From the supplement of paper PMC7125110
± gives the standard error. Variants at the background level are over-represented here.

B1: glmS ribozyme (parent)
chain: AUAAAAGCGCCAGAACUACAGAAAUGUAGUUGACGAGGAGGAGGUUUAUCGAAUUUUCGGCGGAUGCCUCCAAA

Tests used:
Conditions in all cases: with glucosamine-6-phosphate
[1] = variants of: B1; experiment: self-cleavage kobs at 640 uM GlcN6P; higher = faster cleavage; RNA array
How it was run: (§1)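 Tiles of sequenced MiSeq chips were imaged over ~14 h at 37 °C. On them, barcoded ribozyme variants had been transcribed in situ by E. coli RNA polymerase and were tracked via a hybridised Cy3 probe while glucosamine-6-phosphate (40 μM to 10 mM) in HEPES/KCl/Mg(OAc)2 buffer flowed in. Per-tile medians, normalised to baseline and to non-cleaving reference variants, were fit to one- or two-exponential decays for kobs, and weighted Michaelis–Menten fits gave kcat and KM.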

[2] = variants of: B1; experiment: self-cleavage kobs at 2500 uM GlcN6P; higher = faster cleavage; RNA array
How it was run: as §1

[3] = variants of: B1; experiment: self-cleavage kobs at 40 uM GlcN6P; higher = faster cleavage; RNA array
How it was run: as §1

[4] = variants of: B1; experiment: self-cleavage kobs at 160 uM GlcN6P; higher = faster cleavage; RNA array
How it was run: as §1

[5] = variants of: B1; experiment: self-cleavage kobs at 10000 uM GlcN6P; higher = faster cleavage; RNA array
How it was run: as §1

Variant	self-cleavage kobs at 640 uM GlcN6P [1]	self-cleavage kobs at 2500 uM GlcN6P [2]	self-cleavage kobs at 40 uM GlcN6P [3]	self-cleavage kobs at 160 uM GlcN6P [4]	self-cleavage kobs at 10000 uM GlcN6P [5]
A6C U46C U49A U65G	< 1e-05 s⁻¹	< 1e-05 s⁻¹			
A6C G40C C50U C58U	< 1e-05 s⁻¹	< 1e-05 s⁻¹			
C68U C70U			< 1e-05 s⁻¹		
A6C C8G C11A A52C U57G G63C U69G	0.0016 ± 0.00077 s⁻¹				
A6G C11A U56A	< 1e-05 s⁻¹				
A6G C16G G21A G51C U56C	< 1e-05 s⁻¹				
A6G G35A U45G C67U	< 1e-05 s⁻¹				
G7A G40A A42C C67G	< 1e-05 s⁻¹	< 1e-05 s⁻¹			
A6G A12G A36C U46G	< 1e-05 s⁻¹				
C67U C71G	4.78e-05 ± 5.4e-06 s⁻¹	0.00068 ± 0.00033 s⁻¹	1.88e-05 ± 9.1e-06 s⁻¹	3.83e-05 ± 1.2e-05 s⁻¹	5.12e-05 ± 5.1e-06 s⁻¹
A6U U31G G40U A48C	< 1e-05 s⁻¹	< 1e-05 s⁻¹			
A6C C10U G40U C70A	< 1e-05 s⁻¹	< 1e-05 s⁻¹			
A6U C10G A53C G62U	< 1e-05 s⁻¹	< 1e-05 s⁻¹			
A6U G7C A48C	< 1e-05 s⁻¹	< 1e-05 s⁻¹		< 1e-05 s⁻¹	
G7A G35U A36U	< 1e-05 s⁻¹			< 1e-05 s⁻¹	
A6U G7C G51U	< 1e-05 s⁻¹	< 1e-05 s⁻¹			
A6U G38C C70G	< 1e-05 s⁻¹	< 1e-05 s⁻¹		< 1e-05 s⁻¹	
A6C C8U	< 1e-05 s⁻¹	< 1e-05 s⁻¹		< 1e-05 s⁻¹	< 1e-05 s⁻¹
G7A C61G	< 1e-05 s⁻¹	< 1e-05 s⁻¹		< 1e-05 s⁻¹	< 1e-05 s⁻¹
G7A C71A	< 1e-05 s⁻¹	< 1e-05 s⁻¹			
A6U A12U G43U G63U U65C	< 1e-05 s⁻¹				
G7A A15U U46C U49G	< 1e-05 s⁻¹				
A6G A33G G59C G62C C67A	< 1e-05 s⁻¹				

Variant	self-cleavage kobs at 640 uM GlcN6P [1]	self-cleavage kobs at 2500 uM GlcN6P [2]	self-cleavage kobs at 40 uM GlcN6P [3]	self-cleavage kobs at 160 uM GlcN6P [4]	self-cleavage kobs at 10000 uM GlcN6P [5]
G7C A36U	< 1e-05 s⁻¹			< 1e-05 s⁻¹	
A6U C10G G63C	< 1e-05 s⁻¹	< 1e-05 s⁻¹		< 1e-05 s⁻¹	
A6G C16G G41U G44C C67G C70A	< 1e-05 s⁻¹	< 1e-05 s⁻¹		< 1e-05 s⁻¹	
A6C G41U A42C U57C	< 1e-05 s⁻¹				
A6G G9C G60C G63A C68U	< 1e-05 s⁻¹				
A6U C16U G29C A42U C61G	< 1e-05 s⁻¹	< 1e-05 s⁻¹		< 1e-05 s⁻¹	
G7C A14G G41U A64G	< 1e-05 s⁻¹	< 1e-05 s⁻¹			
A6G A12U G43A C50U C68A	< 1e-05 s⁻¹	< 1e-05 s⁻¹			
G7A C8U C16A G43C G44U G63U C68U	< 1e-05 s⁻¹	< 1e-05 s⁻¹		< 1e-05 s⁻¹	
U65C U69C			< 1e-05 s⁻¹		
A6G G41A	< 1e-05 s⁻¹			< 1e-05 s⁻¹	
A6G C11U A36U	< 1e-05 s⁻¹				
A6C G41A U69A C71G	< 1e-05 s⁻¹	< 1e-05 s⁻¹			
A6U G32C C67U C70U	< 1e-05 s⁻¹	< 1e-05 s⁻¹			
A6U G35C A64C	< 1e-05 s⁻¹	< 1e-05 s⁻¹			
A6U C8U G9U U47G	< 1e-05 s⁻¹	< 1e-05 s⁻¹			
A6G G29C A33U G59C	< 1e-05 s⁻¹	< 1e-05 s⁻¹		< 1e-05 s⁻¹	
A6C U45C	< 1e-05 s⁻¹				
A6C G41A U45C	< 1e-05 s⁻¹				< 1e-05 s⁻¹
G7A C16A U57G G63U A64U	< 1e-05 s⁻¹	< 1e-05 s⁻¹			< 1e-05 s⁻¹
G7A U31C G41U G63U	< 1e-05 s⁻¹			< 1e-05 s⁻¹	
A6U A12U U45G C68A	< 1e-05 s⁻¹	< 1e-05 s⁻¹			
A6U C8A G29A G60A G63C	< 1e-05 s⁻¹	< 1e-05 s⁻¹			

Variant	self-cleavage kobs at 640 uM GlcN6P [1]	self-cleavage kobs at 2500 uM GlcN6P [2]	self-cleavage kobs at 40 uM GlcN6P [3]	self-cleavage kobs at 160 uM GlcN6P [4]	self-cleavage kobs at 10000 uM GlcN6P [5]
U69C C71G	6.76e-05 ± 1.6e-05 s⁻¹	7.01e-05 ± 1.5e-05 s⁻¹	3.93e-05 ± 1.3e-05 s⁻¹	0.000225 ± 0.00011 s⁻¹	6.79e-05 ± 9e-06 s⁻¹
G7A A42U A48C C50A G60C G63U	< 1e-05 s⁻¹	< 1e-05 s⁻¹		< 1e-05 s⁻¹	< 1e-05 s⁻¹
A6U G41U G51U	< 1e-05 s⁻¹	< 1e-05 s⁻¹		< 1e-05 s⁻¹	
A6U U31A A36C G66C	< 1e-05 s⁻¹				
A6C A12G A36G	< 1e-05 s⁻¹				
A6C A15G U65C	< 1e-05 s⁻¹				
A6C U31C G62A	< 1e-05 s⁻¹				
A6G U30A A39U G60U	< 1e-05 s⁻¹	< 1e-05 s⁻¹			
G7A C34U G43U U57C C71U	< 1e-05 s⁻¹				
A6U G38A G41A C68A U69G	< 1e-05 s⁻¹	< 1e-05 s⁻¹			
A6G A15C U47A A53C	< 1e-05 s⁻¹	< 1e-05 s⁻¹			
A6G C11U C61U	< 1e-05 s⁻¹	< 1e-05 s⁻¹			
A6G G13A U54G	< 1e-05 s⁻¹				
A6C G35C G41C	< 1e-05 s⁻¹				
U65C C67U			< 1e-05 s⁻¹		
A6U A14C G51C	< 1e-05 s⁻¹	< 1e-05 s⁻¹			
A6U C10G A52G	< 1e-05 s⁻¹				
G7C C10A C71A	< 1e-05 s⁻¹				
G7A A48C G66C	< 1e-05 s⁻¹	< 1e-05 s⁻¹		< 1e-05 s⁻¹	
A6G C11A G35A	< 1e-05 s⁻¹				
A6U U45G A48U U54G	< 1e-05 s⁻¹	< 1e-05 s⁻¹		< 1e-05 s⁻¹	
A64U U65A			< 1e-05 s⁻¹	< 1e-05 s⁻¹	< 1e-05 s⁻¹
C67A	0.004 ± 0.00015 s⁻¹	0.0101 ± 0.00044 s⁻¹	0.000434 ± 1.5e-05 s⁻¹	0.00132 ± 8.4e-05 s⁻¹	0.0155 ± 0.00076 s⁻¹

Variant	self-cleavage kobs at 640 uM GlcN6P [1]	self-cleavage kobs at 2500 uM GlcN6P [2]	self-cleavage kobs at 40 uM GlcN6P [3]	self-cleavage kobs at 160 uM GlcN6P [4]	self-cleavage kobs at 10000 uM GlcN6P [5]
C67G	0.00046 ± 4e-05 s⁻¹	0.00108 ± 3.9e-05 s⁻¹	3.28e-05 ± 1e-06 s⁻¹	0.000109 ± 2.8e-06 s⁻¹	0.00145 ± 3.7e-05 s⁻¹
A6C A33C C50U C70U	< 1e-05 s⁻¹	< 1e-05 s⁻¹		< 1e-05 s⁻¹	
A6U U54C C68G U69G	0.00033 ± 9.7e-05 s⁻¹				
A6C C10U C16G C58A	< 1e-05 s⁻¹	< 1e-05 s⁻¹		< 1e-05 s⁻¹	
A6G C10U U30C G41C G44C	< 1e-05 s⁻¹				
A6U A14G	0.000135 ± 2.3e-05 s⁻¹	0.000414 ± 8.3e-05 s⁻¹		4.93e-05 ± 2.3e-05 s⁻¹	0.000513 ± 8.4e-05 s⁻¹
A6C G51A C71U	< 1e-05 s⁻¹				
A6G A15U U56G C70G	< 1e-05 s⁻¹				
A6G C10U A14G	< 1e-05 s⁻¹				
A6C G35A A53U	< 1e-05 s⁻¹			< 1e-05 s⁻¹	
A6G C16A A52C	< 1e-05 s⁻¹	< 1e-05 s⁻¹			
G7A G37C	< 1e-05 s⁻¹			< 1e-05 s⁻¹	
A6C G37C U65A	< 1e-05 s⁻¹	< 1e-05 s⁻¹		< 1e-05 s⁻¹	
A6G C68U C70G	< 1e-05 s⁻¹				
A6U A36C G38U U56C C67G C68G	0.000412 ± 0.0001 s⁻¹	0.000145 ± 4.4e-05 s⁻¹			
A6G U57A C68G	7.18e-05 ± 2.3e-05 s⁻¹				
G66A C67U	0.00134 ± 0.0002 s⁻¹	0.0016 ± 0.0003 s⁻¹	0.000173 ± 2.6e-05 s⁻¹	0.000398 ± 6.5e-05 s⁻¹	0.00498 ± 0.00098 s⁻¹
A6U C10A A39G G40C C61G C67G	< 1e-05 s⁻¹	< 1e-05 s⁻¹		< 1e-05 s⁻¹	
G7C A12C G35U G37C G60C U65A	< 1e-05 s⁻¹			< 1e-05 s⁻¹	
A6U G44U C68A	< 1e-05 s⁻¹	< 1e-05 s⁻¹		< 1e-05 s⁻¹	
G7A C16U C71A	< 1e-05 s⁻¹				
A6G G7A G13U A15C C68A C70A	< 1e-05 s⁻¹				
A6U C11G C68A C70G	< 1e-05 s⁻¹	< 1e-05 s⁻¹			

Variant	self-cleavage kobs at 640 uM GlcN6P [1]	self-cleavage kobs at 2500 uM GlcN6P [2]	self-cleavage kobs at 40 uM GlcN6P [3]	self-cleavage kobs at 160 uM GlcN6P [4]	self-cleavage kobs at 10000 uM GlcN6P [5]
A6U G41C U56G	< 1e-05 s⁻¹			< 1e-05 s⁻¹	
C68U C70A C71U		< 1e-05 s⁻¹	< 1e-05 s⁻¹		< 1e-05 s⁻¹
A6G G44C G66U	< 1e-05 s⁻¹				
G7A C10A U31A A36G	< 1e-05 s⁻¹				
A64U U69A			< 1e-05 s⁻¹		
A6U G37C G63A	< 1e-05 s⁻¹				
A6G C11G C16U G44A C71A	< 1e-05 s⁻¹				
A6U A12G C16A G40C G44A A48C A53U	< 1e-05 s⁻¹				
G7A C10G A36C G40C U56G G60A G66U	< 1e-05 s⁻¹				
A6G G32A C67U	< 1e-05 s⁻¹			< 1e-05 s⁻¹	
A6G C10G G37C G43A C58A C71A	< 1e-05 s⁻¹				< 1e-05 s⁻¹
A6G G40U	< 1e-05 s⁻¹	< 1e-05 s⁻¹		< 1e-05 s⁻¹	< 1e-05 s⁻¹
A6U G66A	3.28e-05 ± 1.3e-05 s⁻¹	9.12e-05 ± 1.4e-05 s⁻¹			0.000155 ± 1.9e-05 s⁻¹
A6C C34U A42C U47A G63C A64G	< 1e-05 s⁻¹	< 1e-05 s⁻¹			
G7A U54C U65G C67U	< 1e-05 s⁻¹	< 1e-05 s⁻¹		< 1e-05 s⁻¹	
G7C A14U C16A G32A	< 1e-05 s⁻¹			< 1e-05 s⁻¹	
G7C A36G A39G C67U	< 1e-05 s⁻¹	< 1e-05 s⁻¹		< 1e-05 s⁻¹	
U65A C71A		0.0012 ± 0.00041 s⁻¹	5.65e-05 ± 2.4e-05 s⁻¹		0.00104 ± 0.00039 s⁻¹
A6C A33U C70A	< 1e-05 s⁻¹				
A6G C8U C16A	< 1e-05 s⁻¹	< 1e-05 s⁻¹			
G7A U46A C61G G62A	< 1e-05 s⁻¹				
